The campaign covered roughly 150,000 compounds. About 540 (0.36%) showed an effect of 50% or more. Some of the results follow.

Experimental findings from ChEMBL document CHEMBL4888484, “Replenishing the malaria drug discovery pipeline: Screening and hit evaluation of the MMV Hit Generation Library 1 (HGL1) against asexual blood stage Plasmodium falciparum ,using a nano luciferase reporter read-out” (2022) are described below.

The experiment concerns Plasmodium falciparum. Nature of the experiment: Primary screen in NF54 nanoGlo assay, in single point, at 2uM, 72h; a lower Z score goes with more inhibition. Format: functional, Erythrocyte. As to conditions: timepoint 72 hour.
Regarding `Cc1ccc(CNC(=O)c2cnc(NC3CC3)s2)n1C`, the “% Inhibition” value is -13% and the Z score amounted to 2.17.
For the molecule `CN(C)c1ccc(N2CCn3c2nc2c3c(=O)[nH]c(=O)n2C)cc1`, the “% Inhibition” value is -3% and the Z score came to 0.74.
Take `COCCN(c1ccncc1)S(=O)(=O)c1c(F)cccc1Cl`: the “% Inhibition” value is on record as -9% and the Z score worked out at 0.86.
For the molecule `COc1ccc(NC(=O)[C@@H]2CCCCc3n[nH]c(=O)n32)cc1Cl`, the “% Inhibition” value is -13% and the Z score is 1.29.
Consider `COCCOc1nc(-c2cccc(OC)c2)n(-c2ccc(NC(=O)c3ccc(F)cc3)cc2)n1`, for which the “% Inhibition” value is listed as -3% and the Z score was determined as 0.48.
In the case of `C#CCN1C(=O)[C@]2(CC(=O)Nc3[nH]ncc32)c2ccccc21`, the “% Inhibition” value is reported as 6% and the Z score is recorded as -0.96.
Turning to `CCOc1ccc(C2=NC3(CCN(CC)CC3)N[C@H](c3cccc(OC)c3O)C2)cc1`, the “% Inhibition” value is recorded as -9% and the Z score is recorded as 0.98.
On to `Nc1nc(O)cc(NCc2ccccc2)n1`, for which the “% Inhibition” value is -11% and the Z score came to 1.24.
The like results for `Clc1c(CN2CCCC2)cccc1Oc1ccc2c(c1)OCCO2` were, in that order, 8% and -1.58.
With `O=C(O)c1ccc2c(NC3CCCC3)ncnc2c1`, the “% Inhibition” value is recorded as -5% and the Z score is reported as 0.71.
On to `CC(C)c1c[nH]nc1NC(=O)[C@H]1CC1(F)F`, for which the “% Inhibition” value was -17% and the Z score turned out to be 2.46.
For `CCN1CCC2CCC(C1)N2CCC1CCC2(CC1)OCCO2` (configuration not stated), the “% Inhibition” value is reported as -5% and the Z score worked out at 0.53.
Turning to `Cc1cccc(-c2ncccc2CNC(=O)c2cccs2)c1`, the “% Inhibition” value was determined as 9% and the Z score is reported as -1.38.
The like results for `CCC(=O)N1CCc2sc(S(=O)(=O)N3CCN(c4cc(C)ccc4C)CC3)cc2C1` were, in that order, 23% and -6.61.
Take `CCCc1cc(C(=O)N[C@H]2CCN(c3ccccc3F)C2)cc(=O)[nH]1`: the “% Inhibition” value is recorded as -2% and the Z score worked out at 0.37.
As for `Cc1cccc(C2(c3cccc(C)c3)C[C@@H]2C(=O)Nc2nccs2)c1`, the “% Inhibition” value is -2% and the Z score is 0.26.
Regarding `CC(C)Cc1nc(CCn2cncn2)n(-c2cccc3cccnc23)n1`, the “% Inhibition” value is -13% and the Z score is reported as 1.84.
With `Cc1ccc2c(NC(=O)c3ccccc3)nn(C)c2n1`, the “% Inhibition” value is -6% and the Z score is listed as 0.76.
Consider `O=C(CCNc1ccc(Cc2ccncc2)cc1)c1cc2ccccc2o1`, for which the “% Inhibition” value was -38% and the Z score came out at 3.48.
Consider `CCN1CC(CN(C)C(=O)NC2CC2c2ccccc2)Oc2ccccc21` (configuration not stated), for which the “% Inhibition” value was -8% and the Z score is 0.82.
On the same counts, the results for `O=C(O)Cn1nccc1[C@H]1CCCN(Cc2ccc3c(c2)CCO3)C1` are -14% and 1.85.
On to `CC1CN(C(=O)CCc2nc3ccccc3s2)CC(C)N1` (configuration not stated), for which the “% Inhibition” value is reported as 1% and the Z score is listed as -0.08.
Consider `O=C(Nc1ccnn1C1CCC1)N1CCOCC1`, for which the “% Inhibition” value is given as -24% and the Z score was found to be 2.4.
The like results for `CCn1nc(C(=O)N2CCCCCC2)c2c1CC[C@H](NCc1ccccc1OC)C2` were, in that order, -3% and 0.39.
In the case of `CCOc1cc(N2CCOCC2)c(OCC)cc1NC(=O)c1cc(Cl)c2c(c1)OCCCO2`, the “% Inhibition” value is 5% and the Z score is recorded as -0.8.
For `Cc1nc(COC2CCN(C(=O)C3CC3C)C2)cs1` (configuration not stated), the “% Inhibition” value is reported as -2% and the Z score worked out at 0.31.
In the case of `CC(C)=C(C)CC(=O)NCc1cnn(C)c1C`, the “% Inhibition” value stood at 0% and the Z score is reported as 0.02.
The like results for `O=C(Nc1ccccc1C(=O)N1CCCCC1)C1CCN(S(=O)(=O)Cc2ccccc2F)CC1` were, in that order, 2% and -0.36.
With `CCn1nc(CO)c2c1CCN(C(=O)Nc1ccc3c(c1)C[C@H](C)O3)C2`, the “% Inhibition” value is -3% and the Z score is listed as 0.41.
Take `CC(c1cccc(C#N)c1)N1CCOC(COCC2CC2)C1` (configuration not stated): the “% Inhibition” value is -10% and the Z score amounted to 1.34.
Consider `O=C(N[C@@H](N1CCOCC1)C(Cl)(Cl)Cl)c1cccs1`, for which the “% Inhibition” value came out at 6% and the Z score is reported as -0.87.
`Cc1nn(-c2ccccc2Cl)c(=O)n1CC(=O)NCc1nnc2n1CCC2`: the “% Inhibition” value is -17% and the Z score was 1.89.
As to `CCOc1ncc(NC(=O)Cc2ccc(OC)cc2)c(OCC)n1`, the “% Inhibition” value was -4% and the Z score is on record as 0.68.
Consider `O=C(CCc1ccsc1)NC[C@H]1CC[C@@H](CO)O1`, for which the “% Inhibition” value was -11% and the Z score stood at 1.45.
For the molecule `O=C(NCC1CCN(c2nc(-c3ccc(F)cc3)cs2)CC1)c1ccon1`, the “% Inhibition” value is recorded as 4% and the Z score was -0.52.
Turning to `O=C(Nc1ccncc1)C(=O)N1CCN(c2ccc(F)cc2)CC1`, the “% Inhibition” value is recorded as -14% and the Z score came out at 1.48.
For the molecule `Cn1c(=O)c(N2CCN(C(=O)c3cc(F)ccc3F)CC2)nc2cccnc21`, the “% Inhibition” value is -3% and the Z score is given as 0.33.
Regarding `Cc1ncccc1NC(=O)C(C)(C)C(F)F`, the “% Inhibition” value is listed as -9% and the Z score is reported as 1.2.
The like results for `Cc1nn(-c2ncc(F)cc2F)c(C)c1[C@@H]1CCC(=O)N1` were, in that order, -2% and 0.25.
On the same counts, the results for `O=C(c1nc2ccccc2s1)N1CCN(c2cnsn2)CC1` are -11% and 1.36.
As to `CC(C)(C)OC(=O)NC1CCC2CN(Cc3cnc4ccccc4c3)CC21` (configuration not stated), the “% Inhibition” value is on record as -3% and the Z score was 0.47.
With `COc1ccc(-c2nc(N3CCC(Cc4ccccc4)CC3)nc3nn(C)c(N)c23)cc1OC`, the “% Inhibition” value was 5% and the Z score was -0.6.
With `Cc1c(COc2ccc(N)cc2)cnn1C`, the “% Inhibition” value is listed as -22% and the Z score worked out at 4.17.
In the case of `CC(=O)N1C[C@@H]2CCN(Cc3ccc(Br)o3)C[C@]2(CO)C1`, the “% Inhibition” value worked out at 7% and the Z score is -0.98.
In the case of `CCN(CC)S(=O)(=O)c1ccc(NC(=O)CN2CCC(=O)Nc3cc(F)ccc32)cc1`, the “% Inhibition” value is 8% and the Z score was -1.1.
Regarding `CCN(Cc1cccs1)S(=O)(=O)C1(C)CC1`, the “% Inhibition” value is recorded as -4% and the Z score is on record as 0.79.
Regarding `FC1(F)CC12CCC(NCCn1cc(Br)cn1)CC2` (configuration not stated), the “% Inhibition” value was 1% and the Z score is listed as -0.15.
On to `COC(=O)[C@@H]1CS(=O)(=O)[C@H](C)N1C(=O)C(F)(F)F`, for which the “% Inhibition” value is on record as -36% and the Z score amounted to 4.18.
For `COc1cc(C[C@@]2(CCC(=O)N3CCC(Oc4cccc(F)c4)CC3)CCC(=O)N2)ccc1F`, the “% Inhibition” value was determined as 9% and the Z score was -1.18.
On the same counts, the results for `COc1cc(Cc2nccc3cc(OC)c(OC)cc23)c(-n2c(C)ccc2C)cc1OC` are 6% and -0.9.
The like results for `CCC1CC(C(=O)N2CCCCC2c2cnn(C)c2)CC(=O)N1` (configuration not stated) were, in that order, -1% and 0.08.
Consider `Cc1ccc(Cc2c(C)nn(-c3nc(CC(=O)Nc4ccc(C)c(Cl)c4)cs3)c2C)cc1`, for which the “% Inhibition” value is -2% and the Z score is 0.42.
With `C[C@H]1Cc2cc(NC(=O)c3cc(C#N)cn3C)ccc2O1`, the “% Inhibition” value is recorded as -12% and the Z score is listed as 1.59.
Take `Cc1nnsc1C(=O)Nc1cc(C2CCC2)nn1-c1ccccc1`: the “% Inhibition” value was -8% and the Z score amounted to 0.94.
The like results for `c1cnnc(-c2noc(CCc3ccc4c(c3)OCO4)n2)c1` were, in that order, 4% and -0.47.
As to `CCC(=O)NCc1nc2c(n1C)CN(C(=O)c1ccc(F)cc1F)CC2`, the “% Inhibition” value is reported as -8% and the Z score came to 0.86.
On the same counts, the results for `NC(=O)N1CCC(N[C@H](c2cccc(Cl)c2)C2CCCCC2)CC1` are 3% and -0.36.
As to `CCOc1ccc(NC(=O)c2cc(C)nc3c2c(C)nn3-c2ccc(CC)cc2)cc1`, the “% Inhibition” value is recorded as 1% and the Z score is recorded as -0.1.
As for `Cc1ccccc1CCc1cc(NC(=O)c2n[nH]nc2C)[nH]n1`, the “% Inhibition” value is -6% and the Z score amounted to 0.72.
On the same counts, the results for `C1=CCC(COc2ccc3nccn3n2)C1` are 1% and -0.2.
The like results for `CCC1CCC(NC(=O)N2CCC3(CC2)NC(=O)[C@H](CC)O3)CC1` (some centres not stated) were, in that order, -18% and 2.76.
In the case of `CCc1cc(C(=O)N2CCN(C)CC2)on1`, the “% Inhibition” value is recorded as -10% and the Z score is listed as 1.46.
For the molecule `C[C@H](NS(=O)(=O)c1ccccc1C(F)(F)F)C(=O)Nc1ccc2[nH]c(=O)[nH]c2c1`, the “% Inhibition” value is -3% and the Z score was 0.37.
With `Cc1cc(-c2cc(S(=O)(=O)NCc3ccccc3)c(C)s2)on1`, the “% Inhibition” value amounted to 6% and the Z score is reported as -0.58.
In the case of `CCOC(=O)c1nc(NCc2ccccc2OCC)c2c(-c3ccc(F)cc3)noc2n1`, the “% Inhibition” value is recorded as -19% and the Z score is reported as 2.95.
For `CN(Cc1ccc(Cl)cc1)c1nc2ccccc2nc1NS(=O)(=O)c1ccc2c(c1)OCCO2`, the “% Inhibition” value is -2% and the Z score was 0.33.
In the case of `Cn1nc(C2CC2)cc1NC(=O)N[C@@H]1COC2(CCCCC2)C1`, the “% Inhibition” value is reported as -8% and the Z score turned out to be 1.44.
The like results for `O=C(c1cc(C2CC2)on1)N1CC[C@H](Oc2ccncc2Cl)C1` were, in that order, 4% and -0.7.
Take `CCC1(CNC(=O)N2CC3CCC2CN3)OCCc2ccccc21` (configuration not stated): the “% Inhibition” value is on record as 5% and the Z score is on record as -1.02.
`CCOC(=O)c1cc(C2CC2)nc2cc(-c3ccccc3)nn12`: the “% Inhibition” value is on record as -7% and the Z score came out at 0.93.
For `Cc1nn(C(F)F)cc1S(=O)(=O)N1CCC(Cc2ccccc2)CC1`, the “% Inhibition” value is given as -4% and the Z score was 0.44.
Take `Nc1nc(C2CCCC2)ncc1C(=O)NC1C2CCOC2C12CCCC2` (configuration not stated): the “% Inhibition” value is listed as -1% and the Z score is reported as 0.2.
On the same counts, the results for `CN1C[C@@H](NC(=O)c2cscn2)CCC1=O` are -9% and 0.91.
For `C[C@H]1CCCN(c2ccc(C(=O)O)nn2)CC1`, the “% Inhibition” value worked out at 6% and the Z score is -1.17.
Consider `Cn1cccc1C(=O)NC[C@@]12CCC=C1N(CC1CC1)C(=O)CC2`, for which the “% Inhibition” value is on record as -12% and the Z score was determined as 1.72.
Regarding `CN(CC1CCC1)C(=O)NCCc1nccs1`, the “% Inhibition” value is recorded as -3% and the Z score was 0.47.
The like results for `CCCN1CCN(C(=O)C(C)(C)OCC)CC1=O` were, in that order, 13% and -2.18.
As for `COc1ccc2ncc3c(-c4ccccc4)n[nH]c3c2c1`, the “% Inhibition” value is on record as -11% and the Z score worked out at 1.31.
The like results for `Cc1nccnc1CCNC(=O)[C@]1(C)CC[C@H](C)C1(C)C` were, in that order, -5% and 0.59.
The like results for `O=S(=O)(c1cccc2nsnc12)N1CC(Cn2ccnn2)C1` were, in that order, -8% and 1.56.
On the same counts, the results for `O=C(CCc1cccnc1)Nc1ccc2c(c1)OCCO2` are -13% and 2.1.
Regarding `CC(=O)NCC1CCN(Cc2ccccc2-c2nc(C(C)(C)C)cc(=O)[nH]2)CC1`, the “% Inhibition” value is -15% and the Z score is given as 1.31.
Turning to `CCOc1nc2c(c(C)nn2-c2cccc(F)c2)c(C)c1CCC(=O)NCc1ccc(F)cc1`, the “% Inhibition” value came to 0% and the Z score is -0.01.
The like results for `Cc1ncn(CC2CCN(C(=O)c3ccc4nccnc4c3)CC2)c(=O)c1C` were, in that order, -8% and 1.22.
For `O=C1CCc2cc(S(=O)(=O)N3CCC(=O)Nc4cc(F)ccc43)ccc2N1`, the “% Inhibition” value is listed as -6% and the Z score amounted to 0.84.
With `CC(C)CC(=O)Nc1ccc(N(C)C)c(CN(Cc2ccco2)C(=O)NC(C)(C)C)c1`, the “% Inhibition” value came to 1% and the Z score is listed as -0.12.
